# Results reported in article PMC12820563, “FoxP3 forms a head-to-head dimer in vivo and stabilizes its multimerization on adjacent microsatellites”.
# This is one part of the list.
# Molecular target: T1, MBP-FoxP1dN (Mus musculus, UniProt P58462 326-579)
# T1 sequence: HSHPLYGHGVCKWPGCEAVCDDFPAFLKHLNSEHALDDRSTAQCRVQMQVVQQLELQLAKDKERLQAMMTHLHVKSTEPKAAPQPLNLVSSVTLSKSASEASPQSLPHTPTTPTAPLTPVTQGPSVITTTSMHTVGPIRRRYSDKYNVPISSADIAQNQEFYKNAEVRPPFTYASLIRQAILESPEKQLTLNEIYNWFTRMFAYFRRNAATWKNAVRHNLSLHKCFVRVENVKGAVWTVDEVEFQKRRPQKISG
# Assay: PD-seq (MBP pull-down with sequencing); 20 mM Tris-HCl pH 7.5, 100 mM NaCl, 1.5 mM MgCl2, 0.4 uM protein, 0.1 uM dsDNA library, 30 min, room temperature, amylose pull-down; high values mean tight binding
# Settings: protein: recombinant; tags: His6-MBP; chain copies: 2; dsDNA, one strand shown
# Outline: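 A fragment of mouse FoxP3 or FoxP1 without its N-terminus, carrying a His6-MBP tag and produced in E. coli, was combined at 0.4 µM with a 0.1 µM degenerate double-stranded DNA library filled in with Klenow. The mixture sat for 30 min at room temperature in Tris pH 7.5 buffer containing NaCl and MgCl2. Protein–DNA complexes were captured on amylose resin, washed three times, and the DNA was freed with proteinase K, barcoded by PCR and sequenced on Illumina. Binding is expressed as reads-per-million enrichment of pull-down over input, with replicates pooled.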
row,Sequence,binding signal
1,GATGATTGTTCTCCCAGCTGATGAATTACCAATTTCGAGTAAACAAATTTTCCTAATCTTTCTGTTCAAGCGCCATCTAC,1.13 RPM ratio (pull-down/input)
2,GATGATTGTTCTCCCAGCTGATGAATTTCGTATTTCGAGTAAACAAATTTTCCTAATCTTTCTGTTCAAGCGCCATCTAC,0.973 RPM ratio (pull-down/input)
3,GATGATTGTTCTCCCAGCTGATGAATTGCCATATTCGAGTAAACAAATTTTCCTAATCTTTCTGTTCAAGCGCCATCTAC,1.13 RPM ratio (pull-down/input)
4,GATGATTGTTCTCCCAGCTGATGAATTCCTTATGTCGAGTAAACAAATTTTCCTAATCTTTCTGTTCAAGCGCCATCTAC,0.898 RPM ratio (pull-down/input)
5,GATGATTGTTCTCCCAGCTGATGAATTCAGCGTATCGAGTAAACAAATTTTCCTAATCTTTCTGTTCAAGCGCCATCTAC,0.968 RPM ratio (pull-down/input)
6,GATGATTGTTCTCCCAGCTGATGAATTATGAAGATCGAGTAAACAAATTTTCCTAATCTTTCTGTTCAAGCGCCATCTAC,0.955 RPM ratio (pull-down/input)
7,GATGATTGTTCTCCCAGCTGATGAATTTTTGGTGTCGAGTAAACAAATTTTCCTAATCTTTCTGTTCAAGCGCCATCTAC,0.926 RPM ratio (pull-down/input)
8,GATGATTGTTCTCCCAGCTGATGAATTTGATTGTTCGAGTAAACAAATTTTCCTAATCTTTCTGTTCAAGCGCCATCTAC,1.39 RPM ratio (pull-down/input)
9,GATGATTGTTCTCCCAGCTGATGAATTATTCACGTCGAGTAAACAAATTTTCCTAATCTTTCTGTTCAAGCGCCATCTAC,1 RPM ratio (pull-down/input)
10,GATGATTGTTCTCCCAGCTGATGAATTCCTAGTGTCGAGTAAACAAATTTTCCTAATCTTTCTGTTCAAGCGCCATCTAC,0.912 RPM ratio (pull-down/input)
11,GATGATTGTTCTCCCAGCTGATGAATTCCCCCCCTCGAGTAAACAAATTTTCCTAATCTTTCTGTTCAAGCGCCATCTAC,0.762 RPM ratio (pull-down/input)
12,GATGATTGTTCTCCCAGCTGATGAATTCACGGAGTCGAGTAAACAAATTTTCCTAATCTTTCTGTTCAAGCGCCATCTAC,0.794 RPM ratio (pull-down/input)
13,GATGATTGTTCTCCCAGCTGATGAATTGGATTACTCGAGTAAACAAATTTTCCTAATCTTTCTGTTCAAGCGCCATCTAC,0.882 RPM ratio (pull-down/input)
14,GATGATTGTTCTCCCAGCTGATGAATTCGTTGGCTCGAGTAAACAAATTTTCCTAATCTTTCTGTTCAAGCGCCATCTAC,0.774 RPM ratio (pull-down/input)
15,GATGATTGTTCTCCCAGCTGATGAATTGCCCCTATCGAGTAAACAAATTTTCCTAATCTTTCTGTTCAAGCGCCATCTAC,0.967 RPM ratio (pull-down/input)
16,GATGATTGTTCTCCCAGCTGATGAATTTACTGTCTCGAGTAAACAAATTTTCCTAATCTTTCTGTTCAAGCGCCATCTAC,1.12 RPM ratio (pull-down/input)
17,GATGATTGTTCTCCCAGCTGATGAATTCCTGTCCTCGAGTAAACAAATTTTCCTAATCTTTCTGTTCAAGCGCCATCTAC,0.842 RPM ratio (pull-down/input)
18,GATGATTGTTCTCCCAGCTGATGAATTCGGTACATCGAGTAAACAAATTTTCCTAATCTTTCTGTTCAAGCGCCATCTAC,0.991 RPM ratio (pull-down/input)
19,GATGATTGTTCTCCCAGCTGATGAATTCCATAATTCGAGTAAACAAATTTTCCTAATCTTTCTGTTCAAGCGCCATCTAC,0.893 RPM ratio (pull-down/input)
20,GATGATTGTTCTCCCAGCTGATGAATTGCAGCGATCGAGTAAACAAATTTTCCTAATCTTTCTGTTCAAGCGCCATCTAC,1.02 RPM ratio (pull-down/input)

row,Sequence,binding signal
1,GATGATTGTTCTCCCAGCTGATGAATTCCTGCTCTCGAGTAAACAAATTTTCCTAATCTTTCTGTTCAAGCGCCATCTAC,0.771 RPM ratio (pull-down/input)
2,GATGATTGTTCTCCCAGCTGATGAATTAGGTTACTCGAGTAAACAAATTTTCCTAATCTTTCTGTTCAAGCGCCATCTAC,0.929 RPM ratio (pull-down/input)
3,GATGATTGTTCTCCCAGCTGATGAATTGAATGTGTCGAGTAAACAAATTTTCCTAATCTTTCTGTTCAAGCGCCATCTAC,1.01 RPM ratio (pull-down/input)
4,GATGATTGTTCTCCCAGCTGATGAATTTACTCTTTCGAGTAAACAAATTTTCCTAATCTTTCTGTTCAAGCGCCATCTAC,1.37 RPM ratio (pull-down/input)
5,GATGATTGTTCTCCCAGCTGATGAATTCCTATTATCGAGTAAACAAATTTTCCTAATCTTTCTGTTCAAGCGCCATCTAC,1.33 RPM ratio (pull-down/input)
6,GATGATTGTTCTCCCAGCTGATGAATTGTCTTACTCGAGTAAACAAATTTTCCTAATCTTTCTGTTCAAGCGCCATCTAC,1.09 RPM ratio (pull-down/input)
7,GATGATTGTTCTCCCAGCTGATGAATTAGACTTCTCGAGTAAACAAATTTTCCTAATCTTTCTGTTCAAGCGCCATCTAC,0.789 RPM ratio (pull-down/input)
8,GATGATTGTTCTCCCAGCTGATGAATTCAGTACGTCGAGTAAACAAATTTTCCTAATCTTTCTGTTCAAGCGCCATCTAC,0.946 RPM ratio (pull-down/input)
9,GATGATTGTTCTCCCAGCTGATGAATTGCCGCAATCGAGTAAACAAATTTTCCTAATCTTTCTGTTCAAGCGCCATCTAC,1.16 RPM ratio (pull-down/input)
10,GATGATTGTTCTCCCAGCTGATGAATTTGTGTTCTCGAGTAAACAAATTTTCCTAATCTTTCTGTTCAAGCGCCATCTAC,1.48 RPM ratio (pull-down/input)
11,GATGATTGTTCTCCCAGCTGATGAATTTATATATTCGAGTAAACAAATTTTCCTAATCTTTCTGTTCAAGCGCCATCTAC,1.26 RPM ratio (pull-down/input)
12,GATGATTGTTCTCCCAGCTGATGAATTGACTGGCTCGAGTAAACAAATTTTCCTAATCTTTCTGTTCAAGCGCCATCTAC,0.895 RPM ratio (pull-down/input)
13,GATGATTGTTCTCCCAGCTGATGAATTTAGAAGATCGAGTAAACAAATTTTCCTAATCTTTCTGTTCAAGCGCCATCTAC,0.978 RPM ratio (pull-down/input)
14,GATGATTGTTCTCCCAGCTGATGAATTTTACACATCGAGTAAACAAATTTTCCTAATCTTTCTGTTCAAGCGCCATCTAC,1.11 RPM ratio (pull-down/input)
15,GATGATTGTTCTCCCAGCTGATGAATTCATCACATCGAGTAAACAAATTTTCCTAATCTTTCTGTTCAAGCGCCATCTAC,1.16 RPM ratio (pull-down/input)
16,GATGATTGTTCTCCCAGCTGATGAATTTCGAGTGTCGAGTAAACAAATTTTCCTAATCTTTCTGTTCAAGCGCCATCTAC,0.87 RPM ratio (pull-down/input)
17,GATGATTGTTCTCCCAGCTGATGAATTGGGATCCTCGAGTAAACAAATTTTCCTAATCTTTCTGTTCAAGCGCCATCTAC,0.816 RPM ratio (pull-down/input)
18,GATGATTGTTCTCCCAGCTGATGAATTCAGAGGCTCGAGTAAACAAATTTTCCTAATCTTTCTGTTCAAGCGCCATCTAC,0.812 RPM ratio (pull-down/input)
19,GATGATTGTTCTCCCAGCTGATGAATTGCGTGTATCGAGTAAACAAATTTTCCTAATCTTTCTGTTCAAGCGCCATCTAC,1.35 RPM ratio (pull-down/input)
20,GATGATTGTTCTCCCAGCTGATGAATTGACGATATCGAGTAAACAAATTTTCCTAATCTTTCTGTTCAAGCGCCATCTAC,1.17 RPM ratio (pull-down/input)
